# In all, about 33,000 sequences were measured (“E-score (-0.5 to 0.5)”: median about -0.012, highest 2% from about 0.29 on). Some of the results follow.
# Molecular target: T1, Ybr033w (UniProt P38073)
# T1 sequence: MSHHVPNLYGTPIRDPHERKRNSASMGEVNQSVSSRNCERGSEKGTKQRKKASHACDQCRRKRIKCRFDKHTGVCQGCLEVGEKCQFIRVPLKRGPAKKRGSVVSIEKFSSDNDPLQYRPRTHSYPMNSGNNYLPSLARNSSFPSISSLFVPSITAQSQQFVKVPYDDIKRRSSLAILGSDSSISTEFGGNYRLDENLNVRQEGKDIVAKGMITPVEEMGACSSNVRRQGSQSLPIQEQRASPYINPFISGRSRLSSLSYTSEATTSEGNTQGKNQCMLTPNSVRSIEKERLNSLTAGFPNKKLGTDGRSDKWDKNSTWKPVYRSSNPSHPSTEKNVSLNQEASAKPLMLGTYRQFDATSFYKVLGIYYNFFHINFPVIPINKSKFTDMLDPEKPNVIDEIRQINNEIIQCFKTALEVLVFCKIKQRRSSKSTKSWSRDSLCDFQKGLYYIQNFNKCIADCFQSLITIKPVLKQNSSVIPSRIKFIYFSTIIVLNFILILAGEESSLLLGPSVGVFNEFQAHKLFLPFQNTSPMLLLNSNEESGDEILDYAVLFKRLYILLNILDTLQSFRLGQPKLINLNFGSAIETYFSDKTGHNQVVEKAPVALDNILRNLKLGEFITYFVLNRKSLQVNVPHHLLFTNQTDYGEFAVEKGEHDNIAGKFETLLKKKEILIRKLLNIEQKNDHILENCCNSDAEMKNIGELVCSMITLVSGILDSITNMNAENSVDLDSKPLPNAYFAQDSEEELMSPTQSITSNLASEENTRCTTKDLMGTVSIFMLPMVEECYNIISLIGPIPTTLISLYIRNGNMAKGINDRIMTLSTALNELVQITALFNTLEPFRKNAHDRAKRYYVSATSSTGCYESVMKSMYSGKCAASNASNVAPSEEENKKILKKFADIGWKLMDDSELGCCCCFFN
# Assay: PBM E-score (8-mer binding enrichment) (E-score (-0.5 to 0.5)); higher = stronger / more preferred TF binding; most listed sequences are background and not binding sites
# Conditions: protein concentration: 200 nM; construct: GST-full length
# Experimental: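 Universal 'all 10-mer' protein binding microarrays (Agilent AMADID 015681) probed with GST-tagged S. cerevisiae TFs (full-length or DBD) made by in vitro transcription/translation (PURExpress), about 100-200 nM. Bound TF was detected with fluorescent anti-GST. Each ungapped 8-mer (which stands for itself and its reverse complement) is scored by the PBM enrichment score (E-score), a modified Wilcoxon-Mann-Whitney statistic from -0.5 to +0.5, computed with the Universal PBM Analysis Suite. Scale: above 0.35 generally sequence-specific binding.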
row,Sequence,PBM E-score
1,AAATCAGA,0.0788
2,ACATAAAA,0.171
3,CCTACCCC,-0.266
4,ATCTTTCG,0.00412
5,AACAGTGG,-0.157
6,GATAGTAC,0.136
7,AGGGCCCG,-0.274
8,TACCATGA,-0.0398
9,ACAGACAT,0.061
10,ACGTTTGC,-0.0864
11,GTCTTTCA,-0.0591
12,ACCAATCA,0.208
13,ACACTTTA,0.15
14,CAATTAGC,-0.0298
15,CCGTCATA,0.0211
16,CTGATAAG,0.126
17,ACTAACTC,0.0421
18,ACGTCGAT,0.096
19,CCACGCCC,-0.373
20,CCCCCACA,-0.378
21,ATTCTCCA,0.175
22,AGACGGGA,-0.0819
23,ACTTGTCT,0.163
24,AAGCGGAC,-0.143
25,CGAGAAAC,0.00673

row,Sequence,PBM E-score
1,GACCGCGC,-0.178
2,ATCGGGAG,-0.0908
3,ATTCGCTG,0.0858
4,AACCGCTT,0.0495
5,CCACGCTC,-0.126
6,ACAATGAG,0.104
7,CTTCACAA,0.0563
8,ACGGTGAC,-0.156
9,ATCGACAC,-0.0724
10,GCGAAGTA,-0.0195
11,CACGGTGG,-0.161
12,ACCGGGGC,-0.229
13,AGCAGTGA,0.128
14,AGGGTCGA,-0.243
15,CCTCAAAG,-0.026
16,ATGGTGGA,0.136
17,CCGTTTAG,0.0209
18,AACTGTCT,-0.0958
19,ATATGCAG,-0.148
20,GCTGGTCA,-0.141
21,ATTTAGAG,0.142
22,AAGCGTTA,-0.0209
23,CAATTTGC,0.00865
24,GCCCTTCC,-0.171
25,AGTGAGTC,-0.054

row,Sequence,PBM E-score
1,ACCTCAGT,-0.00425
2,ACCCCGCG,-0.241
3,GTAGCAGA,0.105
4,CCCCCAAC,-0.292
5,TAGAACCA,0.0827
6,AAGGAAGC,-0.21
7,GACGCCAC,-0.197
8,ATCGGACC,-0.122
9,GAGGTTTA,0.0128
10,GTAATAAC,0.113
11,AGAGGTGC,-0.229
12,CAGGCACA,-0.263
13,CTAGATGA,0.0268
14,GTGCTGGA,-0.0549
15,ATGCCGGC,-0.155
16,GCGACCGC,-0.187
17,ACGCTAAC,-0.0823
18,GCAAGATA,0.129
19,CCTGTGGA,-0.248
20,AGGTCCTA,-0.164
21,GCTTGGTA,0.127
22,CATGGTAC,-0.0607
23,GGATGGGA,-0.101
24,AAAAGCCA,0.3
25,CCCGTGAG,-0.149

row,Sequence,PBM E-score
1,TAGTACAA,0.185
2,CCCGCAGG,-0.216
3,CTGATCAC,-0.0285
4,AAGAACGA,0.108
5,CACTTCTA,-0.074
6,ACGTCAGG,-0.168
7,TCGGTACA,-0.0197
8,CGCACTTA,0.0893
9,AAAGGCTG,-0.0981
10,CATCGGGG,-0.149
11,ATGTAGTC,0.112
12,GGTAACCA,-0.115
13,CGGAGTAC,-0.116
14,CACTACAG,0.0923
15,TGATCCCA,-0.00531
16,GCTTTGAA,-0.0416
17,ACGTGAAC,-0.271
18,ATTGTGGA,0.153
19,CGTGGAAC,0.0481
20,CCATTCAG,0.182
21,CAGATGCC,-0.0707
22,CGCGGGCC,-0.152
23,GACGGGGA,-0.219
24,AGCGTACC,-0.183
25,GTATGCGA,0.0753

row,Sequence,PBM E-score
1,TCGCCTCA,-0.043
2,CCCGAATC,0.0264
3,GATGTTAA,0.137
4,CTCCGTTA,-0.118
5,AATCAATC,0.0849
6,ACAGATAA,0.221
7,AAGCGCAG,0.127
8,ACGTGTAA,0.197
9,AGGCGGGG,-0.213
10,CATTACCA,-0.00489
11,ATCCTCCC,-0.183
12,CAAGGACC,-0.151
13,ACACTGTA,0.0457
14,CCTTACTA,0.137
15,TCCCAGAA,-0.165
16,TCTCTCCA,-0.201
17,ATATTCGA,0.0581
18,ATTATTTA,0.373
19,GGCGCGAC,-0.0644
20,AGAAAGTA,0.201
21,AAATGCCA,0.049
22,CCGTGCAC,-0.0657
23,AAGGCACA,-0.0378
24,ACGTCAAG,-0.112
25,GGTCATAA,0.0991

row,Sequence,PBM E-score
1,GTGCTCAA,0.00503
2,CATCGAGG,-0.179
3,AGTGCCCC,-0.344
4,CCTCCCCC,-0.383
5,CGCCATTC,0.0807
6,ATCATGAT,0.12
7,ACGTGAAA,0.143
8,TAGGGTAA,0.103
9,ACCCACTA,0.0196
10,CCGTAGTC,-0.287
11,GAGGACGC,-0.24
12,GAGCTGGC,-0.204
13,GAATGAGC,0.0363
14,AAACGACC,-0.0824
15,AAACCTCA,0.194
16,ATTGTGGC,0.0651
17,ACACAGGA,-0.0183
18,GCATGAGC,-0.0968
19,CGTCCAGC,-0.129
20,AAAACAGC,0.0729
21,ACGGAGTC,0.0131
22,AGTATCCG,0.182
23,ATATCCGA,0.266
24,CACCCCCC,-0.382
25,CCCCGGTA,-0.261

row,Sequence,PBM E-score
1,TGTCGCAA,-0.0854
2,AACCCTAG,-0.0236
3,CACGGACC,-0.221
4,GTCCGATA,-0.104
5,CGCGGAGA,0.0986
6,CTGCTACA,-0.0445
7,AAATGACA,0.0222
8,ATTCCTGA,0.146
9,TCGACTAA,0.0469
10,CCGTGTCA,-0.161
11,CCCTGGGC,-0.324
12,AGGTACTA,0.149
13,CAAACTTC,0.206
14,TCGAGACA,0.0181
15,CCCCCCCC,-0.45
16,CCGGGGCC,-0.309
17,ACCTATCC,-0.00927
18,AATTAATG,0.273
19,CATGACTA,-0.0529
20,AAATTTTC,0.258
21,CCTGTTCA,-0.0729
22,CACTTAGC,-0.15
